# The supplement of paper PMC12632987
# In all, about 4,500 sequences were measured (“median log2 fold change of GCK-ALFA target abundance (FLAG IP / Myc IP barcode read proportion)”: median about 0.078, lowest 2% from about -0.6 on). This is one part of the list.
# B1: GBRAP_128_3231 (protein)
# chain: MSPELRAKVDELIETIITGDVEETRAATRELVALMGEVSLEEAEEIAERLIAAIPKLTAEKLDAVADALRENAGTLSPEKAALAYEVEIEALEQAEELEE
# B2: GBRAP_128_3403 (protein)
# chain: SEEEKVAEAERLIEAIVAADVETARRLARELMELFGTLSLEAQERVAEAVEAALPRLTAEKLDVLADVLREQRPRFTPEKQAILADWEVAALNAAEEKEE
# B3: GBRAP_125_2986 (protein)
# chain: EEEELLEDLREIFKALGLSEEDAEEAVKLAREFSLKQTLYALMAALGAEEVADAVAKLTEEQAKEVVKEASEYIKKNPNITPEEVVELLLELAKKQLAKA
# B4: GBRAP_78_6600 (protein)
# chain: EVEELIDKALEKLNEASRIAKKLDPETQQEVLDKLVDAASDLVESEEPEGRLEHLKEALKHVKEALKIVEKSDSESAEELKKVLEEAKKLLEEAIKLLKE
# B5: GBRAP_128_3154 (protein)
# chain: RVEEVRERTRELLERIAEGPLEEVPALARELADLIREADEEAREAILEVFEELVPKLSPEKLDVVADVLREAMPELDPLGREVAAGMIVLADNERLEQEE
# B6: GBRAP_11_2856 (protein)
# chain: KKEKLEEIAELAEEAIKLLEKLLEEGVDNEELRKEIREKLEELLELVKKYLDEADVKLAEDALEDFEESLEDPENAVQHVQNALAHLRVLLGNVLLRIDE
# B7: GBRAP_11_2644 (protein)
# chain: KKEKLEKAAKLAKEAAEAVKELIEKGVDNKELQEKAEKLLEELKKLVEKELSEAHKTDVEVALELWEEFKKDKENKLEYAEQLLAALRVLEGNFLLEADE
# B8: GBRAP_128_3492 (protein)
# chain: SMEEAVARTRELMRAIGEADPEEARRLTRELVALMASVDPETAEAMADEAIELLPELSAEALEVLADTLAELRPSLDPYTANLVADIQVEALNEREELEE
# B9: GBRAP_52_6175 (protein)
# chain: MEERAKAMADAILAAIKAGKKEEVKALIEKAAKEFNDEEIELMWDHIAAAVPGLSPADQERVVDAAIEAEDIFIAAGHDENLASYNEARVAGAAYAALQA
# B10: GBRAP_160_4726 (protein)
# chain: SERIREFVERFEERFLETIEATEDESKEEQAAMFRGTAGEILMEALEEPFLSDEMEDVVAEELDALVAELEANWDASKEEKKAIVREHMERLRERLLALA
# B11: GBRAP_26_5458 (protein)
# chain: VEEKIDEARDNLEKLAKEVLSPEKAAAVQTEISTESWELEEVVEEHPNDLEKIEKKIKEFEEDVFKTLKELDVPEEEFKKLKEKIEEESEKLKEEAKKKV
# B12: GBRAP_52_5900 (protein)
# chain: MEEKAKKMAEEVVAAIKAGDFEKAVELIVKVLLEMSSEEVAIFADALRELLKGQSLEEAEKAVKAAEEAEKRALAKGADEDDVTLVVDAAETALVEVELK
# B13: GBRAP_43_5749 (protein)
# chain: DEELVAGAVEFTLLAAEDPSISPETVLRAFKATLDLIADTGVRLEEELVAAAAAVAKRLSPEQVEALIEHIKELAAASPEVKETFEAAEEVLRAELAKRR
# B14: GBRAP_80_6862 (protein)
# chain: YEEEVQEALELAKSISEELAELFEELVKELKELGVSEEDIARIARIIKDILELDPELALEALEEMVKEAKEYLKKGKGEEALVVVLGIAGEALMEAEEKE
# B15: GBRAP_125_3076 (protein)
# chain: PTEEQLEDLALLLRALGFSEDDVAEAVAIAAASSLRQTLVAIMLAEGAEEAADLIEKLTEEQAAEVLRRVAAYLRANPGLSKEEVIAKVKEVAEEALAAA
# B16: GBRAP_14_3783 (protein)
# chain: MEAIEKAAEESFKELEELLTEIVPEKAEEIRELVEESLKRLKELIKKTGDPVKAAEEVFKELEARVAELTADLPAEKRARALGAVRTEGANLIEEIEELT
# B17: GBRAP_160_4364 (protein)
# chain: SEELKKLAKEIEELMKEFEEEAKDLSPEEARILGLGVLAEIAALIESNEAVSDEVEDEIMKIIDEAEKEIRENKDASPEEIVEIVKKAVEKIIELIKKEA
# B18: GBRAP_166_4929 (protein)
# chain: AKEEAVAATREALRATLAAARADPSMTPAQATVALADTLAERLEEIDDEETKLAVVREGLELAKEAGLDPRRLATLTASLAGFDDETRERIDEITEEILA
# B19: GBRAP_74_6501 (protein)
# chain: AAADEAAAEEFAELLRRGASYEELMAHIAEMNVAALDLAVIKATEEARENAEKLTEEQIDALAELADRVFAESENPEAIAAAGELVKILYETEERRRAEE
# B20: GBRAP_43_5744 (protein)
# chain: SEELVEGAVDFALLAAEDPAIPEETKLRALKAAAELMADEKVKATELALEAVRAFARRASEETVEELIKYLKELAEKNPEIKEGFDKLIKAAEEEREKRR
# B21: GBRAP_52_5865 (protein)
# chain: MEERLREALLRMLALVRAGDEEGARALARELVASISEEEVEVLIRVAAALFAELAPADLDAAWRLMEIIAEALEEAGFPEELVTLFEGEVGSAIAKREAA
# B22: GBRAP_52_6277 (protein)
# chain: MEKEAEELANEFLETTLTKSREEVKEFAKKIVETKSQELIAKMLKIVVEKSKELNLEEVEKILEGFLILEEELDEAGKDTVPAEDAAAEIAALAMKKREA
# B23: GBRAP_128_3300 (protein)
# chain: MDPALRAEVEALVETIRTGDPAARRAAAEALAALMGSVNDEDAEAIADIIEAAIPELSAEALEILADVLDAARPQLTPEKAALAADVASAALLAAEELAE
# B24: GBRAP_57_6452 (protein)
# chain: MSKLEKAEKLAEEAKKAVLEEGDKEKALEYIRKMLELLSKESLLDVALIVDPSARRDDSKEELIEKIVEKAKEYLEKGDKEGVLDIIDLILGQQEMEELE
# B25: GBRAP_139_3701 (protein)
# chain: MSLEEKIARARELTRRTEEDPEGSLEALVELLGSLSEEEAERATEAAAEVWAELPLDRFEELADRLLELAREKIEDEDKVDIIEGVLNGALARHAYAEEL
# B26: GBRAP_78_6687 (protein)
# chain: EIEEKLEKALEHLGKAAKILAKMNTEEALDILGVVVDAASTVEEALFGEADLEELEKALKELEKALKEVKKIDSPEAKEAAEHLEKAIEALKEAIKLMKE
# B27: GBRAP_78_6580 (protein)
# chain: EIEEEIDKAKEYLSEAAKLAKKFPEEIQNELLYLIVEALSSLLESEENGFDLEELEKALKYVEEAIKLVEKLDKEEAKKLKKELEKAKEHLEKAIKLKKK
# B28: GBRAP_184_5130 (protein)
# chain: TLVRRAVEAETAEEAKAAAEAVVAEAAAAGARLDLAVFAKNMSVEEIKELIKYLGALKKAHPQVTITLDVLDELSEEEIDKLVKAADENGVRLVLAISDE
# B29: GBRAP_117_2600 (protein)
# chain: SEAEKKVKELAKELVELAKEALEKKKTLSEEEAKKLEEETLKKMTELVKEMLSLTSEEEVQEFIAEELKDLSPETRVQIWILFYEALAEAEDEREKEEEE
# Biological target: GABARAP, O95166
# Sequence (O95166 whole entry, the tested form may be a part): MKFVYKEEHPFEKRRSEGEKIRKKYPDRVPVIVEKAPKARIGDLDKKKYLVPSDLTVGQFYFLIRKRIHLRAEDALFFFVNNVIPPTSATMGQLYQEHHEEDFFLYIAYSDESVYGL
# Assay: median log2 fold change of GCK-ALFA target abundance (FLAG IP / Myc IP barcode read proportion) (log2 ratio); each designed protein is fused to an ALFA-tag nanobody in HEK293 cells to bring the named protein to FLAG-tagged glucokinase (GCK); Myc marks an untargeted standard; higher = target protein stabilised (more abundant)
# Conditions: target protein: 3xFLAG-MCP-GCK-ALFA reporter; HEK293 landing pad (RPLP)
# How it was run: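 Binders fused to an ALFA nanobody were recombined as a library into HEK293 landing-pad cells, which were induced with 2 μg mL^−1 doxycycline and then transfected to express a FLAG-tagged target and a Myc-tagged standard. After 48 h, circular RNA barcodes recovered by anti-FLAG and anti-Myc immunoprecipitation of lysates were reverse transcribed, amplified and sequenced. Each binder's target abundance is the median log2 ratio of FLAG to Myc barcode read proportions, from barcodes present at ≥10^−7 in both replicates, binders carrying ≥3 barcodes per replicate, a 10^−6 pseudocount and pooled replicates.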
row,Binder,median log2 fold change
1,B1,0.146
2,B2,0.000634
3,B3,-0.643
4,B4,0.474
5,B5,0.23
6,B6,0.113
7,B7,0.459
8,B8,-0.0763
9,B9,0.0494
10,B10,0.0951
11,B11,-0.0387
12,B12,0.172
13,B13,0.142
14,B14,0.161
15,B15,0.112
16,B16,0.292
17,B17,-0.169
18,B18,0.327
19,B19,0.0485
20,B20,0.257
21,B21,-0.0279
22,B22,0.236
23,B23,-0.00271
24,B24,0.213
25,B25,0.00861
26,B26,0.0487
27,B27,-0.0492
28,B28,0.0547
29,B29,0.362
